The results in this text go back to the supplement of paper PMC12355420.

Structures can show the parent of a compound that is named as a salt. The list shows a part of the results. Many values rest on one well or one pass, so single values are uncertain.
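Further: primary screen of an FDA-approved drug library in HeLa reporter cells in 96-well format, CellMask signal normalized to DMSO-treated wells set as 1, under 0.5 deemed highly cytotoxic.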

This assay deals with HeLa VPS33A reporter cells. Put plainly: relative cell viability (CellMask signal) vs DMSO (fraction of DMSO); HeLa model of a glycosaminoglycan (GAG) storage disease; KI is knock-in and KO knock-out; SDC1 is syndecan 1; higher = less cytotoxic. The following applies: 50 µM; 24 h.
`CC(Cc1ccc(O)c(O)c1)C(C)Cc1ccc(O)c(O)c1` (centres undefined) [Nordihydroguaiaretic acid] gave a relative cell viability of 0.00593.

Compound `C=C1/C(=C\C=C2/CCC[C@]3(C)[C@@H]([C@H](C)/C=C/[C@H](C)C(C)C)CC[C@@H]23)C[C@@H](O)C[C@@H]1O` [Doxercalciferol] yielded a relative cell viability of 0.00381.

As for `COc1cc2/c(=N/c3ccc(Br)cc3F)nc[nH]c2cc1OCC1CCN(C)CC1` [Vandetanib (ZD6474)], the relative cell viability is 0.00872.

`COc1ccc2cc1Oc1ccc(cc1)C[C@H]1c3cc(c(OC)cc3CCN1C)Oc1c(OC)c(OC)cc3c1[C@H](C2)N(C)CC3` [Tetrandrine] showed a relative cell viability of 0.00834.

As to `Clc1ccc2c(c1)CCc1cccnc1C2=C1CCNCC1` [Desloratadine], the relative cell viability stood at 0.00875.

As for `CO[C@H]1C[C@@H]2CC[C@@H](C)[C@@](O)(O2)C(=O)C(=O)N2CCCC[C@H]2C(=O)O[C@H]([C@H](C)C[C@@H]2CC[C@@H](OCCO)[C@H](OC)C2)CC(=O)[C@H](C)/C=C(\C)[C@@H](O)[C@@H](OC)C(=O)[C@H](C)C[C@H](C)/C=C/C=C/C=C/1C` [Everolimus (RAD001)], the relative cell viability was found to be 0.00607.

Take `CC(C)(O)c1ccccc1CC[C@@H](SCC1(CC(=O)O)CC1)c1cccc(/C=C/c2ccc3ccc(Cl)cc3n2)c1` [Montelukast Sodium]: the relative cell viability worked out at 0.00489.

With `CC(C)COc1ccc(CNC(=O)N(Cc2ccc(F)cc2)C2CCN(C)CC2)cc1` [Pimavanserin], the relative cell viability amounted to 0.00382.

`Clc1ccc(Nc2nnc(Cc3ccncc3)c3ccccc23)cc1` [Vatalanib (PTK787) 2HCl]: the relative cell viability was 0.0274.

For `CO[C@H]1O[C@@H]2O[C@@]3(C)CC[C@H]4[C@H](C)CC[C@@H]([C@H]1C)[C@@]24OO3` [Artemether (SM-224)*], the relative cell viability is 0.191.

In turn, `CC[C@]1(O)C[C@@H]2CN(CCc3c([nH]c4ccccc34)[C@@](C(=O)OC)(c3cc4c(cc3OC)N(C)[C@H]3[C@@](O)(C(=O)OC)[C@H](OC(C)=O)[C@]5(CC)C=CCN6CC[C@]43[C@@H]65)C2)C1` [Vinblastine sulfate] registered a relative cell viability of 0.0065.

`COc1ccc(C[C@H](N)C(=O)N[C@H]2[C@@H](O)[C@H](n3cnc4c(N(C)C)ncnc43)O[C@@H]2CO)cc1` [Puromycin dihydrochloride]: the relative cell viability stood at 0.00643.

`COc1ccc(C[C@@H]2c3cc(OC)c(OC)cc3CC[N@+]2(C)CCC(=O)OCCCCCOC(=O)CC[N@@+]2(C)CCc3cc(OC)c(OC)cc3[C@H]2Cc2ccc(OC)c(OC)c2)cc1OC` [Cisatracurium Besylate] registered a relative cell viability of 0.00677.

Consider `CCCOc1ccc2[nH]c(NC(=O)OC)nc2c1` [Oxibendazole], for which the relative cell viability was determined as 0.464.

In turn, `CN1CC2c3ccccc3Oc3ccc(Cl)cc3C2C1` (centres undefined) [Asenapine] displayed a relative cell viability of 0.00415.

Regarding `CSc1ccc2c(c1)N(CCC1CCCCN1C)c1ccccc1S2` (centres undefined) [Thioridazine HCl], the relative cell viability amounted to 0.00666.

The compound `C=C1C(=O)O[C@@H]2C=C(C)CCC=C(C)CC[C@@H]12` [Costundide*] came in with a relative cell viability of 0.00409.

Compound `CN1CCN(c2ccc3nc(-c4c(N)c5c(F)cccc5[nH]c4=O)[nH]c3c2)CC1` [Dovitinib (TKI-258, CHIR-258)] showed a relative cell viability of 0.00956.

In the case of `O=C(Nc1nc2cccc(-c3ccc(CN4CCS(=O)(=O)CC4)cc3)n2n1)C1CC1`, the relative cell viability was 0.328.

The compound `CN1CCN(c2ccc(C(=O)Nc3n[nH]c4ccc(Cc5cc(F)cc(F)c5)cc34)c(NC3CCOCC3)c2)CC1` [Entrectinib] gave a relative cell viability of 0.0124.

Take `CN(C)CCCN1c2ccccc2CCc2ccc(Cl)cc21` [Clomipramine HCl]: the relative cell viability was determined as 0.00484.

On to `CCC1=C[C@@H]2CN(C1)Cc1c([nH]c3ccccc13)[C@@](C(=O)OC)(c1cc3c(cc1OC)N(C)[C@H]1[C@@](O)(C(=O)OC)[C@H](OC(C)=O)[C@]4(CC)C=CCN5CC[C@]31[C@@H]54)C2` [Vinorelbine], for which the relative cell viability was 0.00418.

In turn, `CCc1c(Cl)c(O)c(Cl)c(O)c1C(=O)O[C@H]1[C@H](O)[C@H](OC)[C@H](OC/C2=C\C=C\C[C@H](O)/C(C)=C/[C@H](CC)[C@@H](O[C@@H]3OC(C)(C)[C@@H](OC(=O)C(C)C)[C@H](O)[C@@H]3O)/C(C)=C/C(C)=C/C[C@@H]([C@@H](C)O)OC2=O)O[C@@H]1C` [Fidaxomicin] showed a relative cell viability of 0.00887.

Regarding `Cc1nc(Nc2ncc(C(=O)Nc3c(C)cccc3Cl)s2)cc(N2CCN(CCO)CC2)n1`, the relative cell viability stood at 0.004.

The compound `Clc1ccc(C(Cn2ccnc2)OCc2ccc(Sc3ccccc3)cc2)c(Cl)c1` (centres undefined) [Fenticonazole Nitrate] came in with a relative cell viability of 0.00563.

As for `Fc1ccc([C@@H]2CCNC[C@H]2COc2ccc3c(c2)OCO3)cc1` [Paroxetine HCl], the relative cell viability was found to be 0.00376.

`COc1ccc(-c2oc3cc(OC)c(OC)c(O)c3c(=O)c2OC)cc1O` [Vitexicarpin] displayed a relative cell viability of 0.495.

On to `N#Cc1cc(-c2n[nH]c(-c3ccncc3)n2)ccn1` [Topiroxostat], for which the relative cell viability turned out to be 0.00463.

`CC[C@H](C)C[C@H](C)CCCCCCCCC(=O)N[C@H]1C[C@@H](O)[C@@H](NCCN)NC(=O)[C@@H]2[C@@H](O)CCN2C(=O)[C@H]([C@H](O)CCN)NC(=O)[C@H]([C@H](O)[C@@H](O)c2ccc(O)cc2)NC(=O)[C@@H]2C[C@@H](O)CN2C(=O)[C@H]([C@@H](C)O)NC1=O` [Caspofungin Acetate] showed a relative cell viability of 0.0959.

`CC1=CC(=O)c2ccccc2C1=O` [Menadione] yielded a relative cell viability of 0.00699.

As to `CC1=C(/C=C/C(C)=C/C=C/C(C)=C\C(=O)O)C(C)(C)CCC1` [Isotretinoin], the relative cell viability turned out to be 0.304.

Consider `CN(C)CCCOc1nn(Cc2ccccc2)c2ccccc12` [Benzydamine HCl], for which the relative cell viability was found to be 0.179.

In turn, `C=CC(=O)N1CCC(Oc2cc3c(Nc4ccc(Cl)c(Cl)c4F)ncnc3cc2OC)CC1` [Poziotinib] registered a relative cell viability of 0.00934.

For `COc1cc2c3cc1Oc1c(OC)c(OC)cc4c1[C@@H](Cc1ccc(O)c(c1)Oc1ccc(cc1)C[C@@H]3N(C)CC2)N(C)CC4` [Berbamine hydrochloride], the relative cell viability turned out to be 0.0281.

In turn, `OCCN1CCN(CCCN2c3ccccc3Sc3ccc(Cl)cc32)CC1` [Perphenazine] had a relative cell viability of 0.00482.

On to `Cc1cc2c(C(N)=O)cccc2n1-c1nc2c(c(NCc3ccccc3)n1)COCC2`, for which the relative cell viability stood at 0.262.

Consider `O=C(c1ccc(OCCN2CCCCC2)cc1)c1c(-c2ccc(O)cc2)sc2cc(O)ccc12` [Raloxifene HCl], for which the relative cell viability stood at 0.0673.

For `O[C@@H](COc1cccc2ncccc12)CN1CCN(C2c3ccccc3[C@@H]3[C@H](c4ccccc42)C3(F)F)CC1` (some centres undefined), the relative cell viability came to 0.0414.

Compound `COc1cccc2c1C(=O)c1c(O)c3c(c(O)c1C2=O)CC(O)(C(=O)CO)CC3OC1CC(N)C(O)C(C)O1` (centres undefined) [Doxorubicin (Adriamycin) HCl] came in with a relative cell viability of 0.00374.
